Laboratory results taken from paper PMC6863780, “Beyond a Ribosomal RNA Methyltransferase, the Wider Role of MraW in DNA Methylation, Motility and Colonization in Escherichia coli O157:H7” (Frontiers in Microbiology, 2019).

Target: T1, MraW (Escherichia coli, UniProt P60391)
T1 construct: gene rsmH
Assay: colorimetric ELISA-type DNMT activity kit (EpiQuik, anti-5-methylcytosine antibody)
Type: biochemical
Conditions: 5-aza 10 μM; kit DNMT substrate

T1 sequence (P60391 whole entry, looked up): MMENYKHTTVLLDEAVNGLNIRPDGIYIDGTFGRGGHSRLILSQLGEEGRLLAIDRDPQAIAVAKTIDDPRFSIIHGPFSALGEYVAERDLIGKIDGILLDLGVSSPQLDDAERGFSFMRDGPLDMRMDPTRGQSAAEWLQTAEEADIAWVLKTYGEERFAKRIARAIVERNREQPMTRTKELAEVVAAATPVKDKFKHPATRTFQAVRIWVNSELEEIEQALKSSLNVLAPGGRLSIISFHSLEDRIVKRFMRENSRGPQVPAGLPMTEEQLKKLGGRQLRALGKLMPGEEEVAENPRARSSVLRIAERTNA

Nc1ncn([C@H]2C[C@H](O)[C@@H](CO)O2)c(=O)n1 [5-aza-2′-deoxycytidine]
DNMT activity (repressed by 5-aza): The DNMT activity of MraW was repressed by 5-aza (Figure 3C).
